# According to the RNAGym collection of RNA variant scans (doi:10.7554/elife.90254):
# Read counts are not given, so values of variants with three or more changes are uncertain.
# B1: LINE1-mini (parent)
# chain: GGCAGAGCUCAACACAGCGUGGCAAAGUGGCUGUGGCUAGACUGCC
# Variants of: B1
# Experiment: self-cleavage, relative activity (ratio to wild type); higher = more cleavage; in vitro, sequencing; the parent is a self-cleaving ribozyme
row,Variant,self-cleavage
1,C23U A25C C37A,0.01
2,C23U U32G U34C C37U,0.64
3,C23U U28C G29U,0.22
4,A24C A41C U43A,0.02
5,C23G C31G G40U,0.01
6,C23A A24U U32A,0.59
7,C23A G33U G36U C42U,0.05
8,C23A C45U C46U,0.22
9,C23A G29U U38C C46A,0.12
10,C23A A24G G27U G36C,0.02
11,C23G A25G G30A,0.08
12,C23G U38C G40U,0.11
13,C23U A25U U32A G33A,0.03
14,C23G A24U U34A G36U,0.01
15,C23A C37U U43C,0.02
16,C23U U28C G35U,0.11
17,A24C A25C G27A U38G C45G,0.04
18,A24C G36U C37U,0.01
19,C23A G36A A39G,1.26
20,C23A A26U G40U C45G,0.51
21,C23A U34A G35U A39U G40A,0.02
22,C23U U32C G44A,0.14
23,C23G G29U U32A,0.03
24,C23U G27U U32G,0.1

row,Variant,self-cleavage
1,C23U A26C G29U G33U G36U G40A,0.04
2,C23A G27U U43C,0.19
3,C23U U34C U38G,0.01
4,A24C G27A C42A,0.09
5,C23U G27C U28A,0.33
6,C23A G33A G35C,0.06
7,A24G A26C C31A C45U,0.32
8,C23G C31G C42G G44U,0
9,C23A G27A C42A,0.27
10,C23G G29U G30A U38C C42U,0.25
11,C23G G36U C37U,0.03
12,C23A G44C C45A,0.07
13,C23A G33A U34G A39U,0.06
14,C23A U28G U32C U34A,0.06
15,C23A A26U C42U,0.18
16,C23U G30A G33U,0.35
17,C23U G27A G29U U38G,0
18,C23G G29U C31G,0.07
19,A24G A25U U32C C46U,0.12
20,C23U A25G G27C C42A,0.01
21,C23U C37A A39U,0.02
22,C23G A25G A26U G33C,0.02
23,C23G G40C C45A,0.17
24,C23A G40U C45U,0.18

row,Variant,self-cleavage
1,C23A C31G G36C,0.07
2,A24C G33A C42A C46U,0.03
3,A24C G35A C42A,0.05
4,A24G A26C G27A C31A,0.11
5,A24C G36A U38A G40A C46U,0.11
6,G22U G36U C46A,0.15
7,A24G A26G C45G,0.1
8,C23U A24C G36A G44A,0.07
9,C23U U32C G33A,0.17
10,C23U C31G C42U,0.07
11,G22U G44C C45G,0.09
12,C23G G35A G36C,0.17
13,C23U C31U C42U,0.08
14,A24C C31U C37U,0.07
15,C23G A25U G36U,0.03
16,A24C G29A G30A U34A,0.03
17,C23G G29C G35C,0.01
18,C23U C42G U43C,0.03
19,C23G U34G U38A,0.16
20,G22U U28G G30A G40C G44U,0.06
21,A24C G29A C46G,0.09
22,C23U C37G A39U,0.02
23,A24C G29A U32A,0.05
24,G22U U28C C37G,0.02

row,Variant,self-cleavage
1,A24G A25C C45A,0.2
2,C23U A25C C45A,0.13
3,G22U U38G A41C,0.03
4,A24C C37U U43A,0.06
5,C23U A25G U28A C37A U38G C45A,0
6,C23U G29C G30C G44A,0.08
7,C23G A26G C46G,0.92
8,C23A U32A G40A,0.08
9,C23A U32A G40U,0.12
10,C23G G33A U38G,0.05
11,C23G G40A C42A C46U,0
12,C23U G33U C37U,0.16
13,C23A G27A U28A G33A,0.39
14,A24C C37G U38A,0.05
15,C23A A25G G29C A39G,0.17
16,C23A A25U G35A A41U,0.33
17,C23G A26C U28A,0.42
18,C23U G30U A39G G44A,0.03
19,C23G A24C G29A,1.92
20,C23U A25C U38A C46G,0.18
21,C23A A26U G30C C37A,0.14
22,G22U U43C G44U,0.09
23,C23G U28A A39U U43A C46A,0.01
24,C23A G44C C46U,0.17

row,Variant,self-cleavage
1,C23A G44C C46A,0.04
2,C23U C37G G40U A41U,0.16
3,A24C A25C G33U A39G,0.05
4,A24C U28A C37A,0.11
5,C23U G27U G30A,2.11
6,A24C U28A G30U C42A,0.04
7,C23A G35U C45A,0.13
8,C23A A24U G35A,0.17
9,A24C G40U C46A,0.09
10,C23U U38A G40U,0.12
11,C23G G27A G30C,2.7
12,A24C G29U C45U,0.32
13,C23G U34G A39C,0.01
14,C23U A24U G35C,0.15
15,C23G G30U U43A G44U,0.05
16,C23G A24U C42A,0.03
17,G22U U28G C45G,1.23
18,C23A C31G U34C,0.04
19,A24C A25U U43C,0.17
20,A24G A26G G29U,0.39
21,C23G C42A C45A,0.02
22,C23U A25C C31U U43C,0.03
23,C23G A26U C31U,0.08
24,C23G G27U U28G G36A,0.22

row,Variant,self-cleavage
1,C23U C31G G33U,0.11
2,C23U G29C G36A C45A,0.59
3,C23G G27A U28C G29A C31G,0.14
4,A24C C31U C42U,0.02
5,A24C A25C U28G U32C C45A,0.01
6,C23A U34C C42G,0.09
7,C23A C37U U38A,0.02
8,C23G U34A A41G,0.02
9,C23G C31A C42A C45U,0.04
10,C23A G27U U34C A41C,0.01
11,C23G U28A G35A G40A,0.23
12,C23G G36C C45G,0.03
13,A24C A41U C45A,0.06
14,C23A A24U G36U,0.02
15,A24C A26G G33C G36C C45A,0.02
16,C23A A26C C31U,0.08
17,C23G C37G U38A,0.01
18,G22U U34A G40U,0.02
19,A24C G33U G35C,0.19
20,C23U A24C C31U U32A C37G,0.02
21,A24C U28A G30C C31U,0.06
22,C23U G36C G44A,0.05
23,A24C G29C C37U,0.02
24,C23U U28A G30A,1.7

row,Variant,self-cleavage
1,C23G A25U C37U U38G,0.01
2,C23U U28G G36C A41U,0.22
3,C23G A26U G33A U38A G44A,0.02
4,C23U G29A G35A G40A,0.06
5,G22U U34A A41U,0.04
6,C23U A26C G29A G36U,0.02
7,A24C U28C U34A G40U,0.02
8,C23A G30C U32A C37U,0.05
9,C23U G33U U34A C37A,0.03
10,C23G G33U G36A G40U,0
11,C23A G33C U43C,0.01
12,C23U G27A G30A G44C,0.74
13,C23A U38A C45A,0.9
14,C23U G36A C46G,0.08
15,C23U A26U U38C,0.37
16,C23A U34G C45G,0.07
17,C23A G35U C42A,0.1
18,C23A G33C U38A,0.02
19,A24C A26U C37A A39U,0.36
20,C23A G29C G35C,0.08
21,C23A A24U G29C G35C A39U,0.02
22,C23U G29U C46G,2.24
23,A24C G35U C37G,0.18
